No constants are given. Whether binding was seen depends on the method and setting. In cells and extracts the contact can be indirect. Some binding calls cover weakened binding; strength is not graded here. Where a sequence is shown, tags or fusion partners need not be part of it.
Key:
Assay in all cases: co-IP; nuclear extracts (200 ug protein) of HEK293 cells transiently overexpressing both proteins; anti-HA on Dynabeads Protein G, 2 h at RT, washed three times with PBS; blot with anti-Flag, then stripped and probed with anti-HA
HA-tagged GATA5 = HA-tagged GATA5 (UniProt Q9BWX5)
[1] = target: T1, HA-tagged p.R311S TRPS1 (human) (UniProt Q9UHF7)
T1 sequence: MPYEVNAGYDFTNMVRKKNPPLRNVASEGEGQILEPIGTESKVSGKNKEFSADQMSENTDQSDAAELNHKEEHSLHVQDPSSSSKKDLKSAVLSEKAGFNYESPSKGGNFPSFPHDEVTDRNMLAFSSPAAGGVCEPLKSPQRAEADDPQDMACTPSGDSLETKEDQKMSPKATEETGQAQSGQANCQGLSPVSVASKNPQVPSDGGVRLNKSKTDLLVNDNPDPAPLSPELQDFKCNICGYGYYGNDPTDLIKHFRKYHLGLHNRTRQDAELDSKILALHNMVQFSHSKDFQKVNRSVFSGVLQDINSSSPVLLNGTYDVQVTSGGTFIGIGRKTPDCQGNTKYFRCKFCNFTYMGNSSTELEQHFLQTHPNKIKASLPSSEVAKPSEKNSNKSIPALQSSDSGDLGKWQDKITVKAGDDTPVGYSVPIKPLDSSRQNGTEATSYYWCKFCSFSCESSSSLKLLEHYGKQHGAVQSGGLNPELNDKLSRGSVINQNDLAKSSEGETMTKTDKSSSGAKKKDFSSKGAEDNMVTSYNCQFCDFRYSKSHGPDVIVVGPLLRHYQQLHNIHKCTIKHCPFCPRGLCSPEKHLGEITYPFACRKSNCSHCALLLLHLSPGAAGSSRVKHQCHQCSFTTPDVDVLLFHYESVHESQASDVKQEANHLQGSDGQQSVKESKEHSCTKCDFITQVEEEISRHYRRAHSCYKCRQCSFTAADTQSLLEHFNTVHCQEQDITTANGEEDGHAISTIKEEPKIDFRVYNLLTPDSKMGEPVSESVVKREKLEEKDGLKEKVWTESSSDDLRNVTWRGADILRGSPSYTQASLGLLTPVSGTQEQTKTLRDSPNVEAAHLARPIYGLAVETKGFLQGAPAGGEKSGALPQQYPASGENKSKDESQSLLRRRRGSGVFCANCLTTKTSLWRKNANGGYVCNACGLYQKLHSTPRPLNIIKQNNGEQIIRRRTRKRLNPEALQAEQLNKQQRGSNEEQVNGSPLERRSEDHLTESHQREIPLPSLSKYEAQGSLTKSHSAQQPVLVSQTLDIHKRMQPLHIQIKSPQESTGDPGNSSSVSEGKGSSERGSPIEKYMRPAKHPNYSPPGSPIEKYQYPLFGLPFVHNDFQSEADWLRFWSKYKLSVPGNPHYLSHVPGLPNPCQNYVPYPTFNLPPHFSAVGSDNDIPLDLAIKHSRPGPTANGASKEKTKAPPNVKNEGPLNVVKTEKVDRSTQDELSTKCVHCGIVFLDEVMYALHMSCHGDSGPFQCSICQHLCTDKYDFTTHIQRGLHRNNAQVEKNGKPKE

Amino acid sequences for entries named in this document (tags omitted).
UniProt Q9BWX5: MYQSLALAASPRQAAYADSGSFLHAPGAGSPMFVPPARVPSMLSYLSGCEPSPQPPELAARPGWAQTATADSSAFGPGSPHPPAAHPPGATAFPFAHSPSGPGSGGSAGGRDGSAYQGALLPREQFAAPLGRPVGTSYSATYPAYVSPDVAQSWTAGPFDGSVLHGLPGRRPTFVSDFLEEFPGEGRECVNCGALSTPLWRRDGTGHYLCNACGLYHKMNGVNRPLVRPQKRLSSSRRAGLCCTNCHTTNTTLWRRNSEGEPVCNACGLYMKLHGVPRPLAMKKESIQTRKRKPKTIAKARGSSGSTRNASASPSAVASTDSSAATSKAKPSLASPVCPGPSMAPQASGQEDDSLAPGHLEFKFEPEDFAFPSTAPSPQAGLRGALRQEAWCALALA
UniProt Q92908: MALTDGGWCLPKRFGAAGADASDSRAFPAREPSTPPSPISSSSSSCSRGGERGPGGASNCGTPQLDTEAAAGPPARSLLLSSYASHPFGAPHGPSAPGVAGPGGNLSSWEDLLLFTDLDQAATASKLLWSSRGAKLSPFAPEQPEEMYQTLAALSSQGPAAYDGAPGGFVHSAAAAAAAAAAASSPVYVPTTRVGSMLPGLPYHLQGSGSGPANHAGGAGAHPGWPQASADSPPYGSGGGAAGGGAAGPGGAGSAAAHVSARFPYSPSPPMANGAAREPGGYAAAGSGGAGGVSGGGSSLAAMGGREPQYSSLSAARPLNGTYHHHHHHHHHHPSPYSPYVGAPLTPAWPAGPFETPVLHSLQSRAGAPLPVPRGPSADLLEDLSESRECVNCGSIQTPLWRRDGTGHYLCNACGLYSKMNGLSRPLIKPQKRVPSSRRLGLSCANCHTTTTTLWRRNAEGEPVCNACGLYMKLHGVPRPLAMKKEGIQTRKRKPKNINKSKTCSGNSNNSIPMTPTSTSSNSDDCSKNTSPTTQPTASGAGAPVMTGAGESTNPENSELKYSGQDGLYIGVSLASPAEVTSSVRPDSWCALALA
UniProt P43694: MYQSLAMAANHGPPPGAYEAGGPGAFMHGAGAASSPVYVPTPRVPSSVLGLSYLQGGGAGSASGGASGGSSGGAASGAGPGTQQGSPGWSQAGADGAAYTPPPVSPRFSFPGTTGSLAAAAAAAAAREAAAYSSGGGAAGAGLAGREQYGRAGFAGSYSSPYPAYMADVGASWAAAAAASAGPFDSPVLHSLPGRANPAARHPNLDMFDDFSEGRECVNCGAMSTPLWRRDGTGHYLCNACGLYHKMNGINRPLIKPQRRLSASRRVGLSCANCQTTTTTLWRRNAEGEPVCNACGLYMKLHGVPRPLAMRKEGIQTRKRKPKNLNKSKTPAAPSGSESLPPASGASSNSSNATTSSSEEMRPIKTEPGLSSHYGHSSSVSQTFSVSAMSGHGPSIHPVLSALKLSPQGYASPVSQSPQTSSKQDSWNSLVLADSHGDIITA

[2] = target: T2, HA-tagged serum response factor (SRF) (UniProt P11831)
T2 sequence: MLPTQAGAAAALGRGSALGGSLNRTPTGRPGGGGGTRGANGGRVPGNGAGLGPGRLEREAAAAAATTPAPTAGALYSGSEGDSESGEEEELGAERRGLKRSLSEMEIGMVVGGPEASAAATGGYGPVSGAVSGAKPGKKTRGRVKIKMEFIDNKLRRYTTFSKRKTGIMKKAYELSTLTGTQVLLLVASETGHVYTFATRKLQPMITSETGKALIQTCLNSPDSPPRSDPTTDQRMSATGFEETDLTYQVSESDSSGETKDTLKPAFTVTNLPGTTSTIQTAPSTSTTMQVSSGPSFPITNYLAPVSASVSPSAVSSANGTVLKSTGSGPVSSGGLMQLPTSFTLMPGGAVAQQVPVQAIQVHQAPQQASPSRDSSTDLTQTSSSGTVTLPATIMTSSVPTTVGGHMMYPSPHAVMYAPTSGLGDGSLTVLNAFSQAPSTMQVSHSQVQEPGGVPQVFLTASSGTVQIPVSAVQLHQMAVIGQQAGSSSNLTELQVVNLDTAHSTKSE

[3] = target: T3, HA-tagged wild-type TRPS1 (human) (UniProt Q9UHF7)
T3 sequence: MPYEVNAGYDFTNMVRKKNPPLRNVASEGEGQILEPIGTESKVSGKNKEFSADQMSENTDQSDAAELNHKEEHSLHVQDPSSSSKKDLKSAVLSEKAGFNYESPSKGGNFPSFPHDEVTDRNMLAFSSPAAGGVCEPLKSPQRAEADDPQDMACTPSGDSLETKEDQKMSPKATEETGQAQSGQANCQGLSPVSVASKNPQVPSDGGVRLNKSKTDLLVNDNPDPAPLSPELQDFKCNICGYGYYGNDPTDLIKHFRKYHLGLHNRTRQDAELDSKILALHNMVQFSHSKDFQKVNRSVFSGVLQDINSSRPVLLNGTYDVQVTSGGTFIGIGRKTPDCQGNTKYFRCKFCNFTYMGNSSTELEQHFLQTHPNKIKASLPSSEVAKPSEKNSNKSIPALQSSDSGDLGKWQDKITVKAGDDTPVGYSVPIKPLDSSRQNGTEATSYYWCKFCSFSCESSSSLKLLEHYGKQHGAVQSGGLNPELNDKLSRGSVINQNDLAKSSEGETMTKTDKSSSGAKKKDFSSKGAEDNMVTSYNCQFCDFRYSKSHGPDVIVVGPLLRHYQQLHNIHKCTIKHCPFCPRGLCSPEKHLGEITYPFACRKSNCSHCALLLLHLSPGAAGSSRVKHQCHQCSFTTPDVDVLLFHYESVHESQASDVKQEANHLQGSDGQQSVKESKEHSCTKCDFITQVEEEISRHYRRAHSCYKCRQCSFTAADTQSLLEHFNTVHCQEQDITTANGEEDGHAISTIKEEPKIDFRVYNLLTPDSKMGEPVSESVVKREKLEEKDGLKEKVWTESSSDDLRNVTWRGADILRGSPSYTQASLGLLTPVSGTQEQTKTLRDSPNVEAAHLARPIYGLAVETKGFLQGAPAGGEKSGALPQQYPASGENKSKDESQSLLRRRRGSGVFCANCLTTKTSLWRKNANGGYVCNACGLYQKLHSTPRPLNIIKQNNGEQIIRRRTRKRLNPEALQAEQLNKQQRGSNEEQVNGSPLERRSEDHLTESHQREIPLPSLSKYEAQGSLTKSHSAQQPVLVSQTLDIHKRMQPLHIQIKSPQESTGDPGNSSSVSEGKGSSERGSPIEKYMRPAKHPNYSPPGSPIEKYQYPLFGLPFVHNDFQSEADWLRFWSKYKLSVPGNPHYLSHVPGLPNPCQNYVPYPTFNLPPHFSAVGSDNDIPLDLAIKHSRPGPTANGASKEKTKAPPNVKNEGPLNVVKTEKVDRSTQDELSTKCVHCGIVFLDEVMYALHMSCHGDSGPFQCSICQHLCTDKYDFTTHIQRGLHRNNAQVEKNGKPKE

HA-tagged TBX5 = target: T4, HA-tagged TBX5 (UniProt Q99593 1-518)
T4 sequence (looked up): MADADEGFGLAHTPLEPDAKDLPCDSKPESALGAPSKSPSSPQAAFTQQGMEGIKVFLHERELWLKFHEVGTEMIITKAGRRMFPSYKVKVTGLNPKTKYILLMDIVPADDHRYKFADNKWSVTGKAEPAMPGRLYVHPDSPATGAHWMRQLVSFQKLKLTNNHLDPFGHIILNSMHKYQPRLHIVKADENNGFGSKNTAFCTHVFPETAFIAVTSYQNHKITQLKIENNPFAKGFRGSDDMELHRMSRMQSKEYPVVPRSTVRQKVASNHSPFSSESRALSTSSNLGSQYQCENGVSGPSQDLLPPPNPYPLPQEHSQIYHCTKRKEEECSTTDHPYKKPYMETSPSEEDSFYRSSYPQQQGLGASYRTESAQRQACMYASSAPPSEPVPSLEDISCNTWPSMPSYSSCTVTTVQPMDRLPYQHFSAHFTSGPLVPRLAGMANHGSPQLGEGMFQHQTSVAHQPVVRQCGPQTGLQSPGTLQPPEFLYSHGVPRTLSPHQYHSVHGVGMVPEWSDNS

HA-tagged GATA6 = HA-tagged GATA6 (UniProt Q92908)
HA-tagged GATA4 = HA-tagged GATA4 (UniProt P43694 1-442)

B1: Flag-tagged wild type human CSRP1 (natural protein, UniProt P21291 1-193, looked up)
chain: MPNWGGGKKCGVCQKTVYFAEEVQCEGNSFHKSCFLCMVCKKNLDSTTVAVHGEEIYCKSCYGKKYGPKGYGYGQGAGTLSTDKGESLGIKHEEAPGHRPTTNPNASKFAQKIGGSERCPRCSQAVYAAEKVIGAGKSWHKACFRCAKCGKGLESTTLADKDGEIYCKGCYAKNFGPKGFGFGQGAGALVHSE
In the case of B1, the binding (HA-tagged GATA5) is reported as “no binding”, the binding [1] is reported as “no binding” and the binding [2] is reported as “binds”. The binding [3] was “binds”, the binding (HA-tagged TBX5) was “binds” and the binding (HA-tagged GATA6) was “binds”. For the same binder, the binding (HA-tagged GATA4) was “binds”.

Source: publication PMC5741687, “A Novel Role for CSRP1 in a Lebanese Family with Congenital Cardiac Defects” (Frontiers in Genetics, 2017)
